PubChem BioAssay AID1745845 (National Center for Advancing Translational Sciences (NCATS), 2022)
Values joined by “and” are separate entries in the source; they are usually repeats but may differ in a detail not shown here. Equal values may be shown once. About 2,600 (0.72%) of roughly 360,000 compounds were called active. This list was built around the results that the source calls inconclusive (neither active nor inactive); the mix of calls is not that of the screen. The call rests on the fitted dose curve; in most records, active means well fitted inhibition curve with a large enough effect; inconclusive means small, poorly fitted or top-dose-only effect; inactive means no such curve, though single readings can be large or run the other way. A potency beside an inconclusive call is a rough fit, not a confirmed value.

Test: Primary qHTS for Inhibitors of ATXN expression; further: nearly all actives have a fitted effect of over 55% in size
Details: HEK-293 ATXN2-luciferase reporter, luminescence, 24 h; activity change, negative = inhibition: at 57 µM (top of the series)
Outline: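 ATXN2-luciferase reporter cells (luciferase flanked by upstream and downstream ATXN2 gene portions) were treated 24 h at 37 °C with compounds at up to 57 uM. SteadyGlo luminescence gave expression; GF-AFC fluorescence gave viability.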
On the % scale 0 is the no-effect control and ±100 the full control effect; potency means the concentration at half of the fitted maximal effect; tags describe the fitted curve by direction and shape.

| Compound | Potency | activity change, negative = inhibition |
| --- | --- | --- |
| Cc1cccc(N2CCN(C(=O)CC(NC(=O)c3ccccc3Cl)c3ccccc3)CC2)c1C (stereo not given) | inconclusive: 35.5 µM [inhibitor, single point] | – |
| CCOc1ccc(NS(=O)(=O)c2ccc(N)cc2)nn1 | – | inactive: 8.26% |
| Cc1ccc(N(C(=O)c2cccc(C)c2)S(=O)(=O)c2ccc(Cl)cc2)cc1 | inconclusive: 25.1 µM [inhibitor, single point] | – |
| Cc1cccc(-c2[nH]c(C(C)(C)C)nc2-c2ccc3c(c2)OCO3)n1 | active: 15.3 µM | – |
| COc1ccc(NC(=O)/C(Cl)=C(/Cl)S(=O)Cc2ccccc2)cn1 (stereo not given) | active: 2.82 µM | – |
| CC(C)(C)S(=O)(=O)N1C[C@@H]2CC/C=C\C/C=C\2[C@H]1CCO | – | inactive: 5.35% |
| CN(C)C(=O)c1cccc(-c2cnc3c(NC=O)cc(-c4cccc(F)c4)cn23)c1 | inconclusive: 39.8 µM [inhibitor, single point] | – |
| COc1ccccc1N=c1scc(-c2ccc3c(c2)NC(=O)CO3)n1CC1CCCO1 (stereo not given) | inconclusive: 39.8 µM [inhibitor, single point] | – |
| CC(C)(C)NC(=O)COC(=O)c1ccc2c(c1)C(=O)N(Cc1ccco1)C2=O | – | inactive: -12.9% |
| O=S(=O)(Nc1ccc(Br)cc1)c1ccc2nc(-c3ccccc3)[nH]c2c1 | inconclusive: 39.8 µM [inhibitor, single point] | – |
| O=C(NC(c1ccccc1)c1ccc2ccccc2n1)C1CCN(CCOc2ccc(Cl)cc2Cl)CC1 (stereo not given) | inconclusive: 28.2 µM [inhibitor, partial curve, poor fit] | – |
| COc1cc(/C=C/C(=O)OCC(=O)N2c3ccccc3NC(=O)C2(C)C)cc(OC)c1OC | inconclusive: 35.5 µM [inhibitor, single point] | – |
| C#CCOCCOCCOCCNc1nc(N2CCN(C(=O)CCCCCCCCCCNC(=O)Cn3cc(CCCCCN)nn3)CC2)nc(N2CCN(C(=O)CCCCCCCCCCNC(=O)[C@@H]([C@H](C)O)n3cc(C)nn3)CC2)n1 | inconclusive: 39.8 µM [inhibitor, single point] | – |
| CCOC(=O)c1cccc(Nc2cc(C)nc(C)n2)c1 | – | inactive: 4.09% |
| O=C(CCc1ccc(Oc2cc([N+](=O)[O-])cc([N+](=O)[O-])c2)cc1)N1CCCCCC1 | inconclusive: 25.1 µM [inhibitor, single point] | – |
| CN(C)CCNC(=O)c1cccc(-c2cnc3c(NC=O)cc(-c4cccs4)cn23)c1 | inconclusive: 28.2 µM [inhibitor, single point] | – |
| CC(=O)N[C@@H]1[C@H](O[C@@H]2c3ccc(c(Cl)c3)Oc3cc4cc(c3O[C@H]3O[C@H](CO)[C@@H](O)[C@H](O)[C@H]3NC(=O)CCCCCCCC(C)C)Oc3ccc(cc3Cl)C[C@H]3NC(=O)[C@H](N)c5ccc(O)c(c5)Oc5cc(O)cc(c5)[C@H](NC3=O)C(=O)N[C@H]4C(=O)N[C@H]3C(=O)N[C@@H]2C(=O)N[C@@H](C(=O)O)c2cc(O)cc(O[C@H]4O[C@H](CO)[C@@H](O)[C@H](O)[C@H]4O)c2-c2cc3ccc2O)O[C@H](CO)[C@@H](O)[C@@H]1O | – | inactive: -2.87% |
| CC(C)n1c(SCC(=O)N2c3ccccc3Sc3ccccc32)nc2c1c(=O)n(C)c(=O)n2C | inconclusive: 22.4 µM [inhibitor, partial curve, poor fit] | – |
| COc1ccc(-c2cc3nc(NCCN4CCCC4)n(C)c(=O)c3s2)cc1OC | inconclusive: 15.8 µM [inhibitor, partial curve, poor fit] | – |
| CCOC(=O)c1ccc(NC(=O)c2cc3c(n(-c4ccc(C)cc4)c2=O)CC(C)(C)CC3=O)cc1 | – | inactive: 5.48% |

| Compound | Potency | activity change, negative = inhibition |
| --- | --- | --- |
| N#Cc1ccc(-c2csc(NNC(=O)c3ccc(Br)cc3)n2)cc1 | inconclusive: 39.8 µM [inhibitor, single point] | – |
| Cc1nc(SCC(=O)Nc2ccc(F)cc2)c(C#N)c(C)c1CC(=O)c1ccc(Br)cc1 | inconclusive: 11.2 µM [inhibitor, partial curve] | – |
| Cc1c(C(=O)Nc2ccccc2N2CCN(C)CC2)oc2ccc(F)cc12 | inconclusive: 25.1 µM [inhibitor, single point] | – |
| Cc1ccc(-c2nnc(Nc3ccc(O)cc3)c3ccccc23)cc1S(=O)(=O)NCC1CCCO1 (stereo not given) | – | inactive: -24.4% |
| Cc1ccc(C)c(N(C(=O)c2nsc(Cl)c2Cl)C(C(=O)NC2CCCC2)c2ccc(O)cc2)c1 (stereo not given) | inconclusive: 37.7 µM [inhibitor, partial curve, poor fit] | – |
| CC(C)(C)OC(=O)NCCCCCNC(=O)c1[nH]cnc1C(=O)Nc1cc(Br)ccc1F | inconclusive: 25.1 µM [inhibitor, single point] | – |
| COc1ccc(CNC(=O)Cn2ccc3cc(S(=O)(=O)N4CCCCCC4)ccc32)c(OC)c1 | inconclusive: 15.8 µM [inhibitor, partial curve, poor fit] | – |
| Cc1c(CN2CCC(CO)(CCOc3ccccc3)CC2)[nH]c2c(Cl)cccc12 | inconclusive: 31.6 µM [inhibitor, single point] | – |
| Cc1ccc(NC(=O)Cn2cc(S(=O)(=O)NC(C)C)c(S(=O)(=O)NC(C)C)c2)cc1Cl | inconclusive: 39.8 µM [inhibitor, single point] | – |
| CCc1ccc(NC(=O)CNCc2ccc(OC)c(OC)c2)cc1 | inconclusive: 1.78 µM [inhibitor, partial curve, poor fit] | – |
| COc1ccc(NC(=O)/C(Cl)=C(/Cl)S(=O)Cc2ccc(Cl)cc2)cn1 (stereo not given) | active: 2.51 µM | – |
| CCOc1ccc(NC(=O)CSc2nc(-c3cccs3)cc(C(F)(F)F)n2)c([N+](=O)[O-])c1 | inconclusive: 15.8 µM [inhibitor, partial curve] | – |
| CCc1nc2ccc(C(=O)NCCCN3CCCC3=O)cn2c1N(C)CCC(C)C | – | inactive: -14.5% |
| CCC(C)NC(=O)c1ccc(CSCc2ccccc2Cl)o1 (stereo not given) | – | inactive: -1.31% |
| Cc1ccc2c(SCC(=O)NCc3ccco3)nc(-c3ccc(F)cc3)nc2c1 | inconclusive: 28.2 µM [inhibitor, single point] | – |
| Cc1cccc2cc(C#N)c(SCC(=O)NNC(=O)Cc3ccccc3)nc12 | inconclusive: 25.1 µM [inhibitor, single point] | – |
| COc1ccc(N2C(=O)CC(N(CCc3ccccc3)C(=O)c3ccccc3)C2=O)cc1 (stereo not given) | – | inactive: -10.5% |
| O=C(NNC(=O)C1CCN(S(=O)(=O)c2ccc(Cl)cc2)CC1)c1ccccc1O | inconclusive: 20 µM [inhibitor, single point] | – |
| Cc1cc(S(=O)(=O)NCCCN2CCOCC2)ccc1F | – | inactive: -1.46% |
| Cc1ccc2nc3cc([N+](=O)[O-])cc([N+](=O)[O-])c3cc2c1 | active: 7.52 µM | – |

| Compound | Potency | activity change, negative = inhibition |
| --- | --- | --- |
| COc1cccc(N(Cc2nnc3n2CCCCC3)C(=O)Nc2cccc(Cl)c2)c1 | – | inactive: 3.82% |
| Cc1cccc(NS(=O)(=O)c2cccc(C(=O)N3CCCCCCC3)c2)c1 | inconclusive: 39.8 µM [inhibitor, single point] | – |
| O=C(CN(C(=O)CNS(=O)(=O)c1ccc(F)cc1)c1ccccc1F)NCc1ccco1 | – | inactive: -15.2% |
| C=CC[C@@H](CC(=O)N[C@@H](CO)Cc1ccccc1)C(=O)N[C@@H](COC(=O)[C@H](CC=C)CC(=O)OC(C)(C)C)Cc1c[nH]c2ccccc12 | inconclusive: 39.8 µM [inhibitor, single point] | – |
| COc1ccc(CCNC(=O)c2cccc(S(=O)(=O)N3CCc4ccccc4C3)c2)cc1 | inconclusive: 17.8 µM [inhibitor, partial curve, poor fit] | – |
| O=C(Nc1ccccc1N1CCOCC1)c1ccccc1NS(=O)(=O)c1ccc(F)cc1 | – | inactive: -8.46% |
| COc1cc(NCc2ccc3nc(N)nc(N)c3c2C)cc(OC)c1OC | inconclusive: 27.3 µM [inhibitor, single point] and active: 3.55 µM | – |
| CC(C)(C)OC(=O)NCCCC[C@@H](C(=O)NCCCCCCCCCCC(=O)N1CCN(C(=O)OC(C)(C)C)CC1)n1cc(CCCC(=O)O)nn1 | – | inactive: 13.1% |
| CCn1cc(/C=C(\NC(=O)c2ccccc2Cl)C(=O)NCCN2CCOCC2)c2ccccc21 | inconclusive: 31.6 µM [inhibitor, single point] | – |
| Cc1ccc(C2(C)NC(=O)N(CC(=O)N3CCN(S(=O)(=O)c4cccs4)CC3)C2=O)cc1 (stereo not given) | – | inactive: 4.84% |
| Cc1ccc(S(=O)(=O)N[C@@H](Cc2ccccc2)C(=O)CCl)cc1 | inconclusive: 24.3 µM [inhibitor, partial curve] and inconclusive: 35.5 µM [inhibitor, single point] | – |
| CCOC(=O)c1c(C)oc2ncnc(N3CCN(c4cccc(Cl)c4)CC3)c12 | inconclusive: 35.5 µM [inhibitor, single point] | – |
| CCCc1cc(=O)n2[nH]c(C)c(-c3ccc(Cl)cc3)c2n1 | inconclusive: 31.6 µM [inhibitor, single point] | – |
| Clc1ccc(CCNC(c2cccc(Cl)c2)c2nnc(-c3ccccc3)o2)cc1 (stereo not given) | – | inactive: -2.6% |
| Cn1cc(S(=O)(=O)N2CCCCCC2)cc1C(=O)N1CCN(c2ccc(Cl)cc2)CC1 | inconclusive: 25.1 µM [inhibitor, partial curve] | – |
| CCc1nc2ccc(C(=O)N(C)Cc3ccccc3)cn2c1N(CC)Cc1cccc(Br)c1 | inconclusive: 28.2 µM [inhibitor, single point] | – |
| O=C(C#Cc1ccccc1)c1ccco1 | inconclusive: 39.8 µM [inhibitor, single point] | – |
| Cc1ccccc1CNC(=O)C1CCCN(c2nnc(-n3c(C)ccc3C)s2)C1 (stereo not given) | – | inactive: 1.66% |
| COc1ccc2cnnc(SCC(=O)Nc3ccc(C(C)=O)cc3)c2c1OC | – | inactive: -0.579% |
| O=C(CN1CCN(c2cccc(Cl)c2)CC1)Nc1nccs1 | inconclusive: 17.8 µM [inhibitor, partial curve, poor fit] | – |
